Reference: ChEMBL document CHEMBL4888484, “Replenishing the malaria drug discovery pipeline: Screening and hit evaluation of the MMV Hit Generation Library 1 (HGL1) against asexual blood stage Plasmodium falciparum ,using a nano luciferase reporter read-out” (2022)
Hit rate of the full screen: of about 150,000 compounds, about 540 (0.36%) showed an effect of 50% or more. The list shows a part of the results.

These molecules were tested on Plasmodium falciparum (assay: Primary screen in NF54 nanoGlo assay, in single point, at 2uM, 72h; a lower Z score goes with more inhibition). Details: timepoint 72 hour.
Assay type: functional, Erythrocyte
`O[C@H]1Cc2ccccc2[C@H]1n1cc(-c2nccs2)nn1` was tested, and the “% Inhibition” value was -9% and the Z score was 1.06. In the case of `COC(=O)CC[C@@H]1NC(=O)[C@@H](Cc2ccccc2)NC1=O`, the “% Inhibition” value is reported as -5% and the Z score is reported as 0.91. With `Cc1ccc(CC(=O)N2CCC(c3ncc(C(=O)O)s3)CC2)s1` the “% Inhibition” value was 5% and the Z score was -0.91. `N#Cc1cc(S(=O)(=O)NCCN(C2CC2)S(=O)(=O)c2ccc(Cl)c(C#N)c2)ccc1Cl` was tested, and the “% Inhibition” value was 47% and the Z score was -9.35. `CN(Cc1ccco1)C(=O)c1cccc2cn[nH]c12` was tested, and the “% Inhibition” value was -6% and the Z score was 0.87. In the case of `N#Cc1c(N)nsc1N1CCCCC1`, the “% Inhibition” value is reported as -12% and the Z score is reported as 1.7. For `COc1ccc(-c2n[nH]c3c2[C@@H](c2ccc(OCc4ccccc4F)cc2)CC(=O)O3)cc1`, the “% Inhibition” value was -7% and the Z score was 1.23. `Cc1cc(NC(=O)Cc2nnc3c(-c4nc(C5CC5)no4)cccn23)ccc1F` was tested, and the “% Inhibition” value was 2% and the Z score was -0.28. `Cc1c(F)cccc1NC(=O)CN(C)CCCn1cccn1` was tested, and the “% Inhibition” value was -12% and the Z score was 2.32. `CC(=O)N1CCC([C@@H]2CN(Cc3ccc(C(F)(F)F)cc3)C[C@H]2CO)CC1` was tested, and the “% Inhibition” value was -14% and the Z score was 1.64. In the case of `O=C(Nc1ccccc1Cl)N1CC[C@@]2(CCCN(Cc3cccnc3)C2=O)C1`, the “% Inhibition” value is reported as -9% and the Z score is reported as 1.48. For `CC1CCC(O)C(C2CCCCN2C(=O)c2ccc(C(N)=O)cc2)C1` (stereo not drawn), the “% Inhibition” value was -2% and the Z score was 0.21. `CCN(C)C1=Nc2ccccc2Oc2ccc(NC(=O)CC3CCCC3)cc21` was tested, and the “% Inhibition” value was -15% and the Z score was 1.86. For `O=C(CCCc1ccccc1)N1CCN(C[C@H](O)C2CC2)CC1`, the “% Inhibition” value was -2% and the Z score was 0.24. For `CC[C@@H](c1ccccn1)n1cnc2cccc(C(F)(F)F)c2c1=O`, the “% Inhibition” value was 14% and the Z score was -1.97. With `CNS(=O)(=O)CC(=O)NCC1(c2ccc(Cl)cc2)CCCC1` the “% Inhibition” value was -10% and the Z score was 1.58. For `Cc1cnccc1CC(=O)Nc1ncccc1OC(C)C`, the “% Inhibition” value was -13% and the Z score was 1.48. In the case of `COc1ccc(CN2C(=O)CO[C@H]3CN(Cc4ccc(C)cc4)C[C@H]32)cc1`, the “% Inhibition” value is reported as -3% and the Z score is reported as 0.51. `Cc1cccc(CN(Cc2nc(C(=O)NCc3cccnc3)co2)C(C)C)c1` was tested, and the “% Inhibition” value was -7% and the Z score was 1.17. `COc1ccccc1NC(=O)c1ccc(N2C(=O)CCS2(=O)=O)cc1Cl` was tested, and the “% Inhibition” value was -5% and the Z score was 0.68. With `CNC(=O)c1cc2c(s1)CCN(C(=O)[C@@H]1CNCCO1)C2` the “% Inhibition” value was 3% and the Z score was -0.58. For `CCNC(=O)N1CCC(Cc2ccc(C(=O)N3CCOCC3)cc2)CC1`, the “% Inhibition” value was -9% and the Z score was 1.11. With `Cc1ocnc1C(=O)N1CCC([C@@H](O)CCc2ccccc2)CC1` the “% Inhibition” value was -8% and the Z score was 1.64. In the case of `Cc1nc(-c2cccc(C#N)c2)nn1CCS(C)(=O)=O`, the “% Inhibition” value is reported as 0% and the Z score is reported as 0. For `Cc1ccc(-c2cc(O)c3c(c2)CN(Cc2ncccc2C)CCO3)cc1`, the “% Inhibition” value was -11% and the Z score was 2.07. With `CCC(CC)n1nc(C)cc1NC(=O)c1ncn[nH]1` the “% Inhibition” value was 11% and the Z score was -1.45. With `Cc1n[nH]c(C)c1S(=O)(=O)NCc1cnn2c1CCCC2` the “% Inhibition” value was -8% and the Z score was 1.45. `COc1ccc(-c2nc(C)nc(N3CCCC3)c2N)cc1` was tested, and the “% Inhibition” value was -8% and the Z score was 0.97. With `Cn1c(=O)sc2cc(NC(=O)Cc3ccc(F)cc3)ccc21` the “% Inhibition” value was -4% and the Z score was 0.55. `CCCNC(=O)C1CCN(Cc2cn(C)nc2C2CCCC2)CC1` was tested, and the “% Inhibition” value was 1% and the Z score was -0.16. In the case of `CCc1ccc([C@H](C)NCc2cc(F)ccc2CS(C)(=O)=O)o1`, the “% Inhibition” value is reported as -1% and the Z score is reported as 0.1. For `COC[C@H]1COCCN1C(=O)Cc1nnc(-c2ccccc2OC)o1`, the “% Inhibition” value was -10% and the Z score was 1.34. `CCOc1ccc(-c2nc(-c3ccc4c(c3)ncn4CCC(=O)N3CCCCCC3)no2)cc1` was tested, and the “% Inhibition” value was -26% and the Z score was 5.26. In the case of `Cc1csc([C@@H]2CN(c3ncc(Cl)cc3Cl)CCO2)n1`, the “% Inhibition” value is reported as -11% and the Z score is reported as 1.43. In the case of `Cc1ccc(CC(=O)N2CCS(=O)(=O)c3c2c(C)nn3C)cc1C`, the “% Inhibition” value is reported as 13% and the Z score is reported as -1.5. With `CC(C)n1ncc(C(=O)N[C@@H](C)C(C)(C)C)c1C(F)(F)F` the “% Inhibition” value was 1% and the Z score was -0.11. `O=C(c1cccnc1)N1C[C@H]2CC[C@@H](C1)N(C(=O)N1CCCC1)C2` was tested, and the “% Inhibition” value was -2% and the Z score was 0.3. `Cc1c(C)n2c3c(c(NC(=O)c4ccccc4)ccc13)CCC2` was tested, and the “% Inhibition” value was 0% and the Z score was 0.02. With `CNC(=O)[C@H]1CCCN(c2nc(-c3cccnc3)nc(C)c2C)C1` the “% Inhibition” value was -6% and the Z score was 1.22. `O=S1(=O)c2ccccc2N(Cc2ccccc2Cl)c2ccccc21` was tested, and the “% Inhibition” value was -7% and the Z score was 0.75. For `Cc1cc(F)ccc1S(=O)(=O)N1CC(Oc2cc(C)n(C)c(=O)c2)C1`, the “% Inhibition” value was -11% and the Z score was 1.21. In the case of `CC(=O)N[C@@H](CC(C)C)C(=O)ON1C(=O)CCC1=O`, the “% Inhibition” value is reported as 5% and the Z score is reported as -0.73. For `CC(=O)Nc1ccc2nc(N(C(=O)c3cc(Cl)ccc3Cl)C(=O)c3cc(Cl)ccc3Cl)sc2c1`, the “% Inhibition” value was 7% and the Z score was -1.07. With `Cc1cc(C(=O)Nc2sc3c(c2C(N)=O)CCC3)on1` the “% Inhibition” value was -18% and the Z score was 3.46. For `CN(C(=O)c1ccc(N(Cc2ccc(F)cc2)S(C)(=O)=O)cc1)c1ccccc1`, the “% Inhibition” value was -44% and the Z score was 5.13. In the case of `Cc1cc(-c2ccncc2)nn1CCNC(=O)Nc1ccccc1`, the “% Inhibition” value is reported as 19% and the Z score is reported as -2.5. In the case of `Cc1ncoc1CNC(=O)N[C@@H]1c2ccccc2OC[C@@H]1CO`, the “% Inhibition” value is reported as 6% and the Z score is reported as -1.1. `C=CCC(O)(CC=C)CNS(=O)(=O)N1CCCC1` was tested, and the “% Inhibition” value was -13% and the Z score was 1.76. For `Cc1cc(Cl)ccc1C(=O)N1C[C@H]2CCC[C@@H](C2)C1`, the “% Inhibition” value was -11% and the Z score was 2.08. In the case of `CN(C)CC1(CO)CCN(C(=O)C2CCCCCC2)CC1`, the “% Inhibition” value is reported as -6% and the Z score is reported as 1.05. In the case of `Cc1ccc2[nH]c([C@H](C)NC(=O)c3cc(COc4ccccc4)on3)nc2c1`, the “% Inhibition” value is reported as 0% and the Z score is reported as 0.02. `CC1(C)C[C@@H](NC(=O)COc2ccc(CO)cc2)CCO1` was tested, and the “% Inhibition” value was 31% and the Z score was -4.49. `C=CCN(CC=C)C(=O)CN1CCc2nc[nH]c2C12CCCCC2` was tested, and the “% Inhibition” value was 0% and the Z score was 0.03. `CCCS(=O)(=O)Nc1ccc2c(c1)C(=O)N(C)c1ccccc1O2` was tested, and the “% Inhibition” value was -3% and the Z score was 0.35.
